The list shows a part of the results. The main result of the screen is listed elsewhere. These columns were measured beside it and carry no call. Most of these compounds were active or inconclusive in the main read-out, so they are no random draw.

The nature of this experiment: inhibitors of triacylglycerol accumulation, primary screen, cell-based, uHTS, fluorescence, H9c2 (AID 651582). The settings on record: H9c2 cells, Nile Red lipid (TAG) fluorescence; measured here:; at 12.5 µM; cells loaded with 200 µM oleic acid.
Take `O=C(c1cnn2c1NC(c1ccc(Br)cc1)CC2C(F)(F)F)N1CCN(C23CC4CC(CC(C4)C2)C3)CC1` (stereo unspecified): the DAPI nuclei signal change (viability), lower = more cytotoxic was -10.4%.
On to `CC1CCN(C(=O)c2ccc3c(c2NCCO)C(=O)c2ccccc2C3=O)CC1`, for which the DAPI nuclei signal change (viability), lower = more cytotoxic is -15.7%.
Consider `COc1ccc2[nH]c3c(c2c1)CCN1C(=O)C(CC(=O)NC/C=C(\C)CCC=C(C)C)C[C@H](C(=O)N(C(C)C)C(C)C)[C@@]31C` (stereo partly specified), for which the DAPI nuclei signal change (viability), lower = more cytotoxic was -10.6%.
In the case of `c1ccc(COc2ncnc3c2ncn3CCCNC2CCN(Cc3ccccc3)CC2)cc1`, the DAPI nuclei signal change (viability), lower = more cytotoxic is -27.6%.
As for `Cc1onc(-c2ccccc2)c1C(=O)Nc1cc(C(F)(F)F)ccc1N1CCOCC1`, the DAPI nuclei signal change (viability), lower = more cytotoxic is -19.3%.
The value for `COc1cc(NC(=O)c2ccco2)c(OC)cc1NC(=O)CCC(=O)Nc1cccc(C)c1C` was 1.37%.
`Nc1c(Cl)cc(-c2csc(N3CCCC3c3nc4cc(Cl)c(Cl)cc4n3CCCO)n2)cc1Cl` (stereo unspecified): the DAPI nuclei signal change (viability), lower = more cytotoxic is -3.63%.
The value for `Cc1ccc(C(=O)CC2(O)C(=O)N(CCc3ccccc3)c3ccc(Br)cc32)o1` (stereo unspecified) was -7.6%; that for `COc1ccc2cc3cc(C(=O)NCC4COc5ccccc5O4)oc3nc2c1` (stereo unspecified) was -25.3%; that for `COc1ccc(C(=O)Nc2ccc(Cl)cc2C(=O)NCc2ccco2)cc1` was -13.7%.
Consider `COc1ccc(C(=O)NNC(=O)Cc2ccc(-c3ccccc3)cc2)cc1OC`, for which the DAPI nuclei signal change (viability), lower = more cytotoxic was -8.94%.
Turning to `CN1CCN(c2cc(-c3cc(O)c4ncccc4c3)ccn2)CC1`, the DAPI nuclei signal change (viability), lower = more cytotoxic is -15%.
`CN(C)CCCn1c2c3ccccc3ccc2c2oc(=O)c3ccccc3c21`: the DAPI nuclei signal change (viability), lower = more cytotoxic came to 128%.
Regarding `CC(C)n1cnc2c(N(C)c3ccccc3)nc(N(CCN(C)C)Cc3ccccc3)nc21`, the DAPI nuclei signal change (viability), lower = more cytotoxic is -33%.
With `CN1N=C(N)c2cn(C3OC(COP(=O)(O)O)C(O)C3O)c3ncnc1c23` (stereo unspecified), the DAPI nuclei signal change (viability), lower = more cytotoxic is -34.8%.
With `COc1ccc(Nc2cccc3ccccc23)cc1`, the DAPI nuclei signal change (viability), lower = more cytotoxic is 3.61%.
The value for `Cn1cc(/C=N/n2cnc3scc(-c4ccc(Cl)cc4)c3c2=O)c2ccccc21` was -15.7%; that for `CCC(C)(C)NC(=O)C(c1ccccc1F)N(Cc1ccco1)C(=O)c1csnn1` (stereo unspecified) was -5.46%; that for `CC(C)C[C@H]1C(=O)N2CCC[C@H]2[C@]2(O)O[C@](NC(=O)[C@@H]3C=C4c5cccc6[nH]c(Br)c(c56)CC4N(C)C3)(C(C)C)C(=O)N12` (stereo partly specified) was -0.726%.
For the compound `Cc1cc(C)c(S(=O)(=O)Nc2ccc3c4c(cccc24)CC3)c(C)c1`, the DAPI nuclei signal change (viability), lower = more cytotoxic is -37.1%.
Consider `CCN1CCN(Cc2ccc(NC(=O)c3cc(NC(=O)c4cc(-c5ccc(OC)cc5)n[nH]4)cc(OC)c3)cc2C(F)(F)F)CC1`, for which the DAPI nuclei signal change (viability), lower = more cytotoxic was -21.1%.
The figure for `COc1ccc2nc3cc([N+](=O)[O-])ccc3c(NNc3ccc([N+](=O)[O-])cc3)c2c1` is 0.915%; for `Cc1cc(N2CCN(Cc3cn(C)nc3-c3ccccc3F)CC2)cc(C)n1` it is -40%; for `O=C(N/N=C/c1cc(Cl)ccc1O)c1ccncc1` it is -18%.
The value for `CCC(C)(C)NC(=O)C(c1ccc(OC)cc1)N(Cc1ccco1)C(=O)CCC(=O)Nc1cc(C)on1` (stereo unspecified) was -20%; that for `CCCSc1ccc2nc(NC(=O)OC)[nH]c2c1` was -30.1%.
For the compound `Cc1ccc2oc(NC3=NC4(CCCC4)C4=C(CCCC4=O)N3)nc2c1`, the DAPI nuclei signal change (viability), lower = more cytotoxic is -23.8%.
The figure for `c1cc2c(cc1C1CCCCC1)c1c3n2CCCNC3CCC1` (stereo unspecified) is -24.6%.
The value for `CCOc1cc(/C=N/Nc2cc(C)nc(-n3nc(C)cc3C)n2)ccc1O` was -32.1%; that for `Cc1cc(C)nc(Sc2ncnc(N)c2[N+](=O)[O-])n1` was -38.2%; that for `COc1ccccc1NC(=S)N=Nc1c(O)[nH]c2ccc(Br)cc12` was -23.5%.
The value for `Cc1ccc(C(=O)OCC(=O)Nc2cccc(S(=O)(=O)NC3=NCCCCC3)c2)c(C)c1` was -45.2%; that for `CCOC(=O)c1cccc(Nc2nc(-c3cccnc3)nc3ccccc23)c1` was 2.75%; that for `Cc1ccc2nc3n(c(=O)c2c1)-c1cc2ccccc2cc1C(=O)NC3Cc1ccc(O)cc1` (stereo unspecified) was -33%.
As for `Cc1ccccc1OCCNc1cc(N2CC(C)NC(C)C2)ccc1[N+](=O)[O-]` (stereo unspecified), the DAPI nuclei signal change (viability), lower = more cytotoxic was -17.6%.
The value for `COc1ccc(/C=C2/CCC(CN3CCOCC3)C2=O)cc1` (stereo unspecified) was -44.8%.
Turning to `CC(=O)O[C@H]1C(=O)[C@]2(C)[C@H]([C@H](OC(=O)c3ccccc3)[C@]3(O)C[C@H](OC(=O)[C@H](O)[C@@H](NC(=O)c4ccccc4)c4ccccc4)C(C)=C1C3(C)C)[C@]1(OC(C)=O)CO[C@@H]1C[C@@H]2O`, the DAPI nuclei signal change (viability), lower = more cytotoxic is -36.3%.
As for `CCCCCc1cc(=O)oc2c(C(CCN(CC)CC)c3cc(OC)c(OC)c(OC)c3)c(OC)cc(OC)c12` (stereo unspecified), the DAPI nuclei signal change (viability), lower = more cytotoxic was -43.8%.
As for `COc1ccccc1CNC(=O)Nc1nc(C(N)CCc2ccccc2)cs1` (stereo unspecified), the DAPI nuclei signal change (viability), lower = more cytotoxic is -34%.
The figure for `Cc1cc(NC(=O)c2sccc2C)n(-c2nc3ccccc3[nH]2)n1` is -5.55%.
As for `COc1cc(NC(=O)c2nccnc2N)cc(C(=O)Nc2cccc(C(F)(F)F)c2)c1`, the DAPI nuclei signal change (viability), lower = more cytotoxic is 13.4%.
With `O=C(O)c1ccc(N/N=C/c2ccc(-c3ccc(Cl)cc3Cl)o2)cc1`, the DAPI nuclei signal change (viability), lower = more cytotoxic stood at 32.1%.
Take `O=C(Cc1ccccc1)Nc1nc(-c2cccs2)cs1`: the DAPI nuclei signal change (viability), lower = more cytotoxic worked out at 0.737%.
For the compound `COCCNc1nc(NCc2ccc(NC(C)=O)cc2)c2sc(-c3ccccc3)cc2n1`, the DAPI nuclei signal change (viability), lower = more cytotoxic is -34.4%.
In the case of `Cc1nn(-c2ccccc2)c(C)c1/C=N/NC(=O)c1cc(-c2ccccc2)n[nH]1`, the DAPI nuclei signal change (viability), lower = more cytotoxic was -14.2%.
In the case of `CC(=O)NC(c1cc(Cl)c2cccnc2c1O)C1CC1` (stereo unspecified), the DAPI nuclei signal change (viability), lower = more cytotoxic is 5.79%.

These data come from PubChem BioAssay AID651582 (Sanford-Burnham Center for Chemical Genomics, 2012).
